According to the supplement of paper PMC4967469:
pIC50: −log10 of the molar value. Lines with a small IC50 respond at low doses; where the fit passes the top or lowest dose, that dose stands as a limit. For AUC the same curve is integrated over the 256-fold range of doses and scaled to a fraction; the more sensitive the line, the further below 1. For part of these data: Where the top dose is marked as inferred, it comes from the curve model; the source does not state it.

Tests used:
Experiment in all cases: Viability of human cancer cell lines after 72 h of drug (GDSC screen)
QL-XI-92 = compound: C=CC(=O)Nc1cc(NC(=O)c2ccc(C)c(NC(=O)c3ccno3)c2)cc(C(F)(F)F)c1 [QL-XI-92]; details: top dose 10.24 µM; top dose inferred
Description: (§1)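 Human cancer cell lines in 384-well plates, medium with 10% serum, drug for 72 h over a 256-fold dose range (nine 2-fold or five 4-fold steps up to the top dose). Adherent lines were fixed and stained with the nucleic acid dye Syto60, suspension lines read with resazurin; signal relative to control wells, capped at 0 and 100%. One two-parameter sigmoid per drug and line, fitted in a mixed model over all curves with the slope shared within a line.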

Vinorelbine = compound: CCC1=C[C@@H]2CN(C1)Cc1c([nH]c3ccccc13)[C@@](C(=O)OC)(c1cc3c(cc1OC)N(C)[C@H]1[C@@](O)(C(=O)OC)[C@H](OC(C)=O)[C@]4(CC)C=CCN5CC[C@]31[C@@H]54)C2 [Vinorelbine]; details: top dose 0.064 µM; top dose inferred
Description: as §1

AG-014699 = compound: CNCc1ccc(-c2[nH]c3cc(F)cc4c3c2CCNC4=O)cc1 [AG-014699]; details: top dose 5 µM; top dose inferred
Description: as §1

XL-184 = compound: COc1cc2nccc(Oc3ccc(NC(=O)C4(C(=O)Nc5ccc(F)cc5)CC4)cc3)c2cc1OC [XL-184]; details: top dose 5.12 µM; top dose inferred
Description: as §1

WHI-P97 = compound: COc1cc2ncnc(Nc3cc(Br)c(O)c(Br)c3)c2cc1OC [WHI-P97]; details: top dose 10.24 µM; top dose inferred
Description: as §1

Gefitinib = compound: COc1cc2ncnc(Nc3ccc(F)c(Cl)c3)c2cc1OCCCN1CCOCC1 [Gefitinib]; details: top dose 0.5 µM
Description: as §1

Phenformin = compound: N=C(N)NC(=N)NCCc1ccccc1 [Phenformin]; details: top dose 4000 µM; top dose inferred
Description: as §1

EHT 1864 = compound: O=c1cc(CN2CCOCC2)occ1OCCCCCSc1ccnc2cc(C(F)(F)F)ccc12 [EHT 1864]; details: top dose 10 µM; top dose inferred
Description: as §1

NU-7441 = compound: O=c1cc(N2CCOCC2)oc2c(-c3cccc4c3sc3ccccc34)cccc12 [NU-7441]; details: top dose 2 µM; top dose inferred
Description: as §1

Cell Line | AUC (QL-XI-92) | pIC50 (QL-XI-92) | AUC (Vinorelbine) | pIC50 (Vinorelbine) | AUC (AG-014699) | pIC50 (AG-014699) | AUC (XL-184) | pIC50 (XL-184) | AUC (WHI-P97) | pIC50 (WHI-P97) | AUC (Gefitinib) | pIC50 (Gefitinib) | AUC (Phenformin) | pIC50 (Phenformin) | AUC (EHT 1864) | pIC50 (EHT 1864) | AUC (NU-7441) | pIC50 (NU-7441)
KYSE-70 (oesophagus, adherent) | 0.977 | < 4.99 | 0.679 | 7.88 | 0.977 | < 5.30 | 0.984 | < 5.29 | 0.974 | < 4.99 | 0.959 | < 6.30 | 0.89 | < 2.40 | 0.962 | < 5.00 | – | –
M14 (melanoma, adherent) | 0.978 | < 4.99 | 0.745 | – | 0.974 | < 5.30 | 0.874 | < 5.29 | 0.94 | < 4.99 | 0.984 | < 6.30 | 0.611 | 3.29 | 0.975 | < 5.00 | – | –
MDA-MB-175-VII (breast, adherent) | 0.941 | < 4.99 | 0.921 | < 7.19 | 0.988 | < 5.30 | 0.978 | < 5.29 | 0.927 | < 4.99 | 0.873 | < 6.30 | 0.845 | 2.48 | 0.923 | < 5.00 | – | –
Mewo (melanoma, adherent) | 0.981 | < 4.99 | 0.705 | 7.77 | 0.972 | < 5.30 | 0.982 | < 5.29 | 0.984 | < 4.99 | 0.942 | < 6.30 | 0.665 | 3.10 | 0.912 | < 5.00 | – | –
NCI-H441 (lung adenocarcinoma, adherent) | 0.975 | < 4.99 | 0.729 | 7.62 | 0.973 | < 5.30 | 0.977 | < 5.29 | 0.965 | < 4.99 | 0.946 | < 6.30 | 0.783 | 2.61 | 0.972 | < 5.00 | – | –
NCI-H1105 (small cell lung carcinoma, suspension) | – | – | – | – | – | – | – | – | – | – | 0.993 | < 6.30 | – | – | 0.993 | < 5.00 | 0.993 | < 5.70
NCI-H1734 (lung adenocarcinoma, adherent) | 0.971 | < 4.99 | 0.689 | 7.84 | 0.983 | < 5.30 | 0.958 | < 5.29 | 0.982 | < 4.99 | 0.967 | < 6.30 | 0.634 | 3.21 | 0.985 | < 5.00 | – | –
NCI-H2029 (small cell lung carcinoma, adherent) | 0.974 | < 4.99 | 0.889 | 7.22 | 0.983 | < 5.30 | 0.992 | < 5.29 | 0.984 | < 4.99 | 0.988 | < 6.30 | 0.486 | 3.64 | 0.991 | < 5.00 | – | –
PA-TU-8988T (pancreas, adherent) | 0.979 | < 4.99 | 0.664 | 7.94 | 0.957 | < 5.30 | 0.951 | < 5.29 | 0.978 | < 4.99 | 0.977 | < 6.30 | 0.813 | 2.67 | 0.924 | < 5.00 | – | –
PANC-08-13 (pancreas, adherent) | 0.964 | < 4.99 | 0.815 | 7.32 | 0.953 | < 5.30 | 0.849 | < 5.29 | 0.947 | < 4.99 | 0.965 | < 6.30 | 0.722 | 2.89 | 0.954 | < 5.00 | – | –
SCC-4 (head and neck, adherent) | 0.984 | < 4.99 | 0.446 | 8.56 | 0.924 | < 5.30 | 0.965 | < 5.29 | 0.961 | < 4.99 | 0.891 | < 6.30 | 0.822 | 2.53 | 0.915 | < 5.00 | – | –
SW1990 (pancreas, adherent) | 0.974 | < 4.99 | 0.836 | 7.27 | 0.985 | < 5.30 | 0.985 | < 5.29 | 0.974 | < 4.99 | 0.939 | < 6.30 | 0.909 | < 2.40 | 0.972 | < 5.00 | – | –
U-266 (myeloma, semi-adherent) | – | – | – | – | – | – | – | – | – | – | 0.971 | < 6.30 | – | – | – | – | 0.983 | < 5.70
UM-UC-3 (bladder, adherent) | 0.899 | < 4.99 | 0.711 | 7.82 | 0.971 | < 5.30 | 0.896 | < 5.29 | 0.93 | < 4.99 | 0.975 | < 6.30 | 0.667 | 3.15 | 0.926 | < 5.00 | – | –
UMC-11 (lung carcinoid, adherent) | 0.974 | < 4.99 | 0.883 | 7.25 | 0.988 | < 5.30 | 0.914 | < 5.29 | 0.979 | < 4.99 | 0.975 | < 6.30 | 0.54 | 3.50 | 0.908 | < 5.00 | – | –
VMRC-MELG (melanoma, adherent) | 0.982 | < 4.99 | 0.969 | < 7.19 | 0.989 | < 5.30 | 0.813 | 5.53 | 0.877 | < 4.99 | 0.987 | < 6.30 | 0.857 | 2.46 | 0.977 | < 5.00 | – | –
WM278 (melanoma, adherent) | 0.98 | < 4.99 | 0.803 | 7.44 | 0.898 | < 5.30 | 0.912 | < 5.29 | 0.922 | < 4.99 | 0.98 | < 6.30 | 0.843 | 2.47 | 0.974 | < 5.00 | – | –
